Assay results published in PMC2542364.
Results are given in words; binding and its absence hold for the method and conditions named. In cells and extracts the contact can be indirect. Some entries that bind do so weakly or less than the wild type. Where a sequence is shown, tags or fusion partners need not be part of it. Blank lines part the entries; values can stand above or below the binder they belong to.

The chains behind the UniProt entries cited, without tags or fusion partners. Residues count along the entry.
UniProt Q9EQD0, residues 27-585: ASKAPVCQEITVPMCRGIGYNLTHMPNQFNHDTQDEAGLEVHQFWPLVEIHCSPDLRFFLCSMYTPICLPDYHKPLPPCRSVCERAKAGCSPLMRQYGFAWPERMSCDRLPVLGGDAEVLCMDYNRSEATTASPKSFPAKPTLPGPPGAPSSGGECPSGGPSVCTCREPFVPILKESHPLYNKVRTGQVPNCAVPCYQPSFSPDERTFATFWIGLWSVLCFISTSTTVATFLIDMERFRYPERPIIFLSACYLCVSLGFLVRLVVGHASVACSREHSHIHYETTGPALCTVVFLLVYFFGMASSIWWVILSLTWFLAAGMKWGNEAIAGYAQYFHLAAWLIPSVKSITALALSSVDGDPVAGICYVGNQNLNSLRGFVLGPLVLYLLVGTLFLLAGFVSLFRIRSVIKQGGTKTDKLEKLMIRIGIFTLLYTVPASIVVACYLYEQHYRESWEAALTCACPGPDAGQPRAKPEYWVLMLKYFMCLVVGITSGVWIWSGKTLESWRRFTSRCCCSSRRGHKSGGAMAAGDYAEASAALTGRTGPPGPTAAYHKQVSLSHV

Legend:
[1] = biological target: mouse Fz5-HA (mouse) (UniProt Q9EQD0); assay: co-IP; lysates of transfected HEK 293T cells (Fz-HA with Sfrp1-myc or its derivatives), lysis buffer 150 mM NaCl, 1% NP40, 50 mM Tris pH 8; precipitated with anti-HA, blotted with anti-myc
[2] = biological target: T1, chick Wnt8c-HA (chick) (UniProt P51030); assay: co-IP; conditioned media of separately transfected HEK 293T cells mixed for 2 hours; precipitated with polyclonal anti-HA and Protein G-Sepharose, four washes with lysis buffer (150 mM NaCl, 1% NP40, 50 mM Tris pH 8); blotted with monoclonal anti-myc (9E10)
T1 sequence: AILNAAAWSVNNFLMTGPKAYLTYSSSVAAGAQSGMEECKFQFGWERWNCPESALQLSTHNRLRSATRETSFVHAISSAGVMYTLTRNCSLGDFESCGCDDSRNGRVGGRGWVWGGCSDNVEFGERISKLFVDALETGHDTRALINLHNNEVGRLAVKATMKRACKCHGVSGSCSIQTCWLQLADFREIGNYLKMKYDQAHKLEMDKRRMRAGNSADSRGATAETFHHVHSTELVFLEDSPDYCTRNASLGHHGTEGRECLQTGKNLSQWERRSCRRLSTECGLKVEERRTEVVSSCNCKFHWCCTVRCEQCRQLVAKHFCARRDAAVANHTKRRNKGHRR

[3] = biological target: T2, chick Sfrp1-myc (chick) (UniProt Q9DEQ4); assay: co-IP; reverse immunoprecipitation: same mixed conditioned media precipitated with polyclonal anti-myc, blotted with monoclonal anti-HA
T2 sequence: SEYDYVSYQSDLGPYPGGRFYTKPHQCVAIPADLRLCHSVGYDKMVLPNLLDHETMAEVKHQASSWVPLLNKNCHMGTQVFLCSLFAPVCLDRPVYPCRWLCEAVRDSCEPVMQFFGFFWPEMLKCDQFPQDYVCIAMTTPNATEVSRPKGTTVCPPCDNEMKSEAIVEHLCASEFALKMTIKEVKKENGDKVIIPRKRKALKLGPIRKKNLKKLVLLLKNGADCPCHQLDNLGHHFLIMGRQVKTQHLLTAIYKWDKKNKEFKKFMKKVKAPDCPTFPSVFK

[4] = biological target: T3, chick Sfrp1NTR-myc (chick) (UniProt Q9DEQ4); assay: as above
T3 sequence (chain, glycosylated (migrates as a smear due to post-translational glycosylation)): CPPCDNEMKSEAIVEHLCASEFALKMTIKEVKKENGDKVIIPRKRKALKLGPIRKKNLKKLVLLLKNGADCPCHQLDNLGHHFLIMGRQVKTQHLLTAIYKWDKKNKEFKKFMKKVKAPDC

binding [1]: binds | binding [2]: binds
B1: chick Sfrp1-myc (protein, UniProt Q9DEQ4 32-314)
chain: T2 sequence

binding [1]: no binding | binding [2]: binds
B2: chick Sfrp1NTR-myc (domain or fragment, UniProt Q9DEQ4 186-306)
chain: T3 sequence (chain, glycosylated (migrates as a smear due to post-translational glycosylation))
modifications: glycosylated (migrates as a smear due to post-translational glycosylation)

binding [3]: binds | binding [4]: binds
B3: chick Wnt8c-HA (ligand, UniProt P51030 17-357)
chain: T1 sequence
